# Results: PubChem BioAssay AID504832 (National Center for Advancing Translational Sciences (NCATS), 2011)
# Hit rate of the full screen: of about 310,000 compounds, about 18,000 (5.8%) were called active. The inconclusive results got no clear call from the source; some entries with a clear call stand among them for comparison. Calls follow the shape of the dose curve; as a rule, active = well fitted inhibition curve with a large enough effect; inconclusive = small, poorly fitted or top-dose-only effect, or another doubt; inactive = no such curve, though single readings can be large or run the other way. Potencies of inconclusive entries are left out as doubtful fits.
# Assay: Primary qHTS for delayed death inhibitors of the malarial parasite plastid, 48 hour incubation
# Details: P. falciparum luciferase growth in erythrocytes; series mostly up to 28.7 µM; activity change, negative = inhibition: at the top concentration
# How it was run: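 Parasite viability was followed by luminescence of a genomically integrated firefly luciferase. Cultures held 0.1% parasitemia at 2% hematocrit (final), incubated under 5% CO2 at 37 C.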
# % is scaled to controls: 0 for no effect and ±100 for the full control effect; potency is read from the fitted curve at half-maximal effect; tags tell the direction and shape of the fitted curve.
Structure (SMILES),Potency,"activity change, negative = inhibition"
COc1ccc(NS(=O)(=O)c2cc(NC(=O)c3ccc(=O)[nH]n3)ccc2C)cc1,"inconclusive [inhibitor, partial curve]",–
COCc1cc(=O)[nH]c(Nc2nc3ccc(C)cc3o2)n1,active: 2.94 µM,–
CC(C)C1C(c2ccccc2)NC(c2ccccc2)CC1(O)c1ccc(F)cc1 (configuration not stated),active: 4.15 µM,–
C=CCSc1nc2sc3c(c2c(=O)[nH]1)CCC3,–,inactive: 12.1%
CCOC(=O)c1oc2ccccc2c1COC(=O)CNC(=O)c1ccco1,–,inactive: -20.8%
CSc1nc(Cl)c(Cc2ccc(OCC(C)C)cc2)c(N2CCOCC2)n1,"inconclusive [inhibitor, single point]",–
O=[N+]([O-])c1ccc(C2=NCCO2)cc1,–,inactive: 26.2%
COc1cc(OC)c2c(-c3ccccc3)cc(=O)oc2c1,"inconclusive [inhibitor, full curve, poor fit]",–
CNC[C@H](CC1CCCCC1)NC[C@H](NCCC1CCCC1)[C@H](C)O,"inconclusive [inhibitor, full curve]",–
COc1cccc(-c2nc(N)nc(SC)c2C#N)c1,–,inactive: 16.2%
COc1ccc(N2CCN(C(=O)COC(=O)c3ccc(OC(F)F)cc3)CC2)cc1,"inconclusive [inhibitor, single point]",–
Cc1cc(C)c(S(=O)(=O)NC2CC(C)(C)NC(C)(C)C2)cc1Br,"inconclusive [inhibitor, single point]",–
CSc1nc2oc3c(c2c2nncn12)CC(C)(C)SC3,"inconclusive [inhibitor, single point]",–
COc1ccccc1-c1c(-c2ccc(O)cc2O)n[nH]c1C(F)(F)F,"inconclusive [inhibitor, partial curve, poor fit]",–
COc1ccccc1-c1nn(Cc2ccccc2)cc1C(=O)N1CCN(c2ncccn2)CC1,"inconclusive [inhibitor, partial curve]",–
Cc1cccc(N(C(=O)CCC(=O)Nc2cccnc2)C(C(=O)NC2CCCC2)c2ccncc2)c1 (configuration not stated),"inconclusive [inhibitor, single point]",–
COc1cc(Br)cc(CN2CCN(C/C=C/c3ccccc3)CC2)c1O,"inconclusive [inhibitor, partial curve]",–
COc1ccc(NS(=O)(=O)c2cc(NC(=O)CC3CCCC3)ccc2N2CCOCC2)cc1,"inconclusive [inhibitor, single point]",–
COc1ccc(C(=O)Nc2ccc3c(c2)C(=O)N(C)C3=O)cc1OC,–,inactive: -0.0144%
CCNC(=O)NC(=O)CSc1ccc(S(=O)(=O)N(C)C2CCCCC2)cn1,active: 11.7 µM,–
Cc1ccc(-c2csc3nc(SCC(=O)N(C)C)n(Cc4ccccc4)c(=O)c23)cc1,active: 13.1 µM,–
O=C(Nc1ccccn1)c1cccc(S(=O)(=O)N2CCCc3ccccc32)c1,active: 7.38 µM,–
CCCCN(C(=O)CSCC(=O)Nc1ccc(C)cc1)c1c(N)n(CCCC)c(=O)[nH]c1=O,"inconclusive [inhibitor, partial curve, poor fit]",–
COCCCn1c(SCC(=O)NCc2ccccc2)nc2ccccc2c1=O,"inconclusive [inhibitor, partial curve]",–

Structure (SMILES),Potency,"activity change, negative = inhibition"
CCS(=O)(=O)N1CCN(c2ccc([N+](=O)[O-])c(NCc3ccccc3)c2)CC1,"inconclusive [inhibitor, single point]",–
Cc1ccc(C(C)NC(=S)NC2CCCCC2)c(C)c1 (configuration not stated),active: 10.4 µM,–
CC(=O)c1ccc(NC(=O)c2ccc(C)c(S(=O)(=O)N3CCOCC3)c2)cc1,"inconclusive [inhibitor, partial curve]",–
CC1(C)Cc2c(sc(NC(=O)c3ccc4ncsc4c3)c2C(N)=O)C(C)(C)N1,–,inactive: 83%
CCC1CCCCN1CCCNC(=O)C1CCC(CNS(=O)(=O)c2c(C)cc(C)cc2C)CC1 (configuration not stated),"inconclusive [inhibitor, single point]",–
Cc1ccc(NC(=O)c2cccnc2)cc1C,–,inactive: 95.5%
Cc1cccc2cc(CN(Cc3ccco3)C(=O)NC3CCCCC3)c(=O)[nH]c12,"inconclusive [inhibitor, single point]",–
CC1CC(C)CN(S(=O)(=O)c2ccc(NC(=O)CN3CCCCCC3)cc2)C1 (configuration not stated),active: 7.38 µM,–
CC12CCC(=O)N1C(C(=O)Nc1cc(Cl)ccc1N1CCOCC1)CS2 (configuration not stated),"inconclusive [inhibitor, partial curve, poor fit]",–
CCn1c2ccccc2c2cc(/C=N/n3cn[nH]c3=S)ccc21,"inconclusive [inhibitor, partial curve]",–
COc1ccc(NC(=O)COC(=O)C2CC3C=CC2C3)cc1 (configuration not stated),–,inactive: 46.2%
Cc1csc(C(=O)O)c1NC(=O)c1ccc(F)cc1,–,inactive: 20.2%
CC(C)(C)n1nnnc1C(c1ccncc1)N1CCN(c2ccc(O)cc2)CC1 (configuration not stated),"inconclusive [inhibitor, single point]",–
CN1C2C=C3C(C#N)=C(N)C(C#N)(C#N)[C@H](c4c(F)cccc4F)[C@H]3C1CC2 (some centres not stated),"inconclusive [inhibitor, single point]",–
N#C/C(=C\c1cccc(OCC(=O)O)c1)c1nc2ccccc2[nH]1,–,inactive: -8.2%
O=C(c1ccc(O)cc1)c1ccc(Cl)cc1,–,inactive: 5.11%
Cc1cc(C)nc(/N=C(\N)Nc2ccccc2-c2ccccc2)n1,"inconclusive [inhibitor, partial curve]",–
CCOc1ccc2nc(NC(=O)CSC3=NCCS3)sc2c1,"inconclusive [inhibitor, single point]",–
CCOc1ccc(NC(=O)CN(C)C(=O)CSCc2cccc(C)c2)cc1OCC,"inconclusive [inhibitor, single point]",–
CC1CCCN(C(=O)Cn2nnc(-c3ccc(N(C)C)cc3)n2)C1 (configuration not stated),"inconclusive [inhibitor, single point]",–
COc1ccccc1N1C(=O)C2C(c3ccccc3F)NN(C(=O)c3ccc(C)cc3)C2C1=O (configuration not stated),–,inactive: 17.6%
CC1CC(NC(=O)c2c(O)nc3sccn3c2=O)CC(C)(C)C1 (configuration not stated),active: 13.1 µM,–
C=CCn1c(SCC(=O)Nc2ccc(N3CCOCC3)cc2)nc2ccccc2c1=O,"inconclusive [inhibitor, full curve, poor fit]",–
Cc1cccc(OCC(=O)N(C)CC(=O)Nc2cccc(F)c2)c1C,"inconclusive [inhibitor, partial curve]",–

Structure (SMILES),Potency,"activity change, negative = inhibition"
Cc1ccc(C(NC(=O)N2CCCCC2)=C(Cl)Cl)cc1F,–,inactive: -10.7%
COc1ccc(C2Nc3ccccc3NC3=C2C(=O)CC(C)(C)C3)cc1O (configuration not stated),"inconclusive [inhibitor, single point]",–
O=C(NCc1n[nH]c(=S)n1Cc1ccccc1)c1ccc(Cl)cc1Cl,"inconclusive [inhibitor, full curve, poor fit]",–
COc1ccccc1NC(=O)c1ccc(C(=O)Nc2ccccc2OC)nc1,"inconclusive [inhibitor, full curve, poor fit]",–
COc1ccc(N2CCN(c3cc(C)nc4ccc(OC)cc34)CC2)cc1,active: 13.1 µM,–
N/C(=N\OC(=O)c1cc(-c2ccccc2)nc2ccccc12)c1ccccn1,"inconclusive [inhibitor, single point]",–
COCCNC(=O)CCc1c(C)nc2nc(-c3cc(OC)cc(OC)c3)nn2c1C,"inconclusive [inhibitor, single point]",–
COc1cc(/C=N/N2C(=O)c3ccccc3C2=O)ccc1O,–,inactive: 36.4%
Cc1ccc(-c2[nH]c3ccccc3c2C(C[N+](=O)[O-])c2ccco2)cc1 (configuration not stated),active: 9.28 µM,–
CC1=CC2(C#N)C3(N=C(N)C2(C#N)C(c2ccccc2)N1)OCCO3 (configuration not stated),–,inactive: -9.1%
C=CCN(CC=C)CC(O)CN(c1cc([N+](=O)[O-])ccc1OC)S(=O)(=O)c1ccccc1 (configuration not stated),"inconclusive [inhibitor, single point]",–
O=C(Cn1c(=O)oc2ccccc21)Nc1ccc2c(c1)OCCO2,–,inactive: 24.2%
COc1ccc(C(=O)Nc2ccc3nc(N4CCCCC4)cc(C)c3c2)c(OC)c1,–,inactive: 2.58%
O=C(NC(=S)Nc1ccccc1Cl)c1ccco1,–,inactive: 1.67%
C=CCNC(=S)/N=c1/ccccn1Cc1ccccc1,"inconclusive [inhibitor, partial curve]",–
O=C(NNS(=O)(=O)c1cc(Cl)c(Cl)cc1Cl)c1cccnc1,"inconclusive [inhibitor, single point]",–
CS(=O)(=O)N(CC(=O)NCC1CCCO1)c1cc(Cl)cc(Cl)c1 (configuration not stated),–,inactive: 8.42%
O=C(Nc1ccc(N2CCOCC2)cc1)c1ccc(Cl)c(S(=O)(=O)N2CCCC2)c1,"inconclusive [inhibitor, single point]",–
COc1cccc2c1OCC(C(=O)OCc1cccnc1)=C2,–,inactive: 0.806%
O=C(NCCCN1CCN(C2CCCCC2)CC1)Nc1ccccc1C(F)(F)F,"inconclusive [inhibitor, single point]",–
O=C1C(Cc2ccccc2)Nc2ncnc(N3CCCCC3)c2N1Cc1ccc(Cl)cc1 (configuration not stated),active: 11.7 µM,–
CC(=O)Oc1ccccc1C(=O)NC(C)CCc1ccccc1 (configuration not stated),active: 14.7 µM,–
COc1cc(-c2noc(C)c2-c2ccc(N(C)C)nc2)cc(OC)c1OC,"inconclusive [inhibitor, partial curve, poor fit]",–
COc1ccccc1N(CC(=O)N(CC(C)C)CC(C)C)S(=O)(=O)c1cccs1,"inconclusive [inhibitor, partial curve]",–
